Some of the results follow. Sequences were assembled here from the parent chain. Inactive controls read about 0.05.
B1: TEV protease; numbered along this chain (parent)
chain: MGESLFKGPRDYNPISSSICHLTNESDGHTTSLYGIGFGPFIITNKHLFRRNNGTLVVQSLHGVFKVKDTTTLQQHLVDGRDMIIIRMPKDFPPFPQKLKFREPQREERICLVTTNFQTKSMSSMVSDTSCTFPSGDGIFWKHWIQTKDGQCGSPLVSTRDGFIVGIHSASNFTNTNNYFTSVPKNFMELLTNQEAQQWVSGWRLNADSVLWGGHKVFMVKPEEPFQPVKEATQL

Variants of: B1
Test: raw area under fraction-flipped curve 0-4 h after induction (AUC4h, not background-subtracted), DNA-recorder readout of cleavage of the substrate (dimensionless); higher = more cleavage of the substrate by the protease variant
Conditions: temperature: 34 °C; time window: 0-4 h after rhamnose induction
Description: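 In vivo DNA recorder in E. coli TOP10(DE3) ΔrhaA at 34 °C. Each TEVp single-site mutant (parent TEVp 0) is paired with a single-site variant of the 7-mer TEVs (canonical ENLYFQ|S). The substrate sits between flexible linkers in a Bxb1-sfGFP-TEVs-SsrA fusion, so cleavage stabilises Bxb1 and speeds flipping of a recombination array, read by NGS. The value is the raw area under the fraction-flipped curve over 0-4 h after rhamnose induction (AUC4h), with ≥20 reads per time point. It is not background-subtracted; inactive controls average about 0.047.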
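Also: Bxb1 expression induced with 0.2% (w/v) L-rhamnose at OD600 near 0.5, cultures sampled hourly, flipped fraction per protease–substrate barcode pair counted by paired-end Illumina sequencing.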

V67E
area with substrate ENLYDQS: 0.0462 | area with substrate ENLYEQS: 0.0549 | area with substrate ENLYPQS: 0.0738 | area with substrate ENLYRQS: 0.0399 | area with substrate ENLYTQS: 0.0801

K216E
area with substrate ENLYCQS: 0.0633 | area with substrate ENLYDQS: 0.0614 | area with substrate ENLYGQS: 0.055 | area with substrate ENLYHQS: 0.0571 | area with substrate ENLYMQS: 0.0649 | area with substrate ENLYNQS: 0.0622 | area with substrate ENLYPQS: 0.0732 | area with substrate ENLYSQS: 0.0761

L56N
area with substrate ENLYDQS: 0.035 | area with substrate ENLYEQS: 0.0336 | area with substrate ENLYGQS: 0.0384 | area with substrate ENLYHQS: 0.0498 | area with substrate ENLYIQS: 0.0456 | area with substrate ENLYKQS: 0.0423 | area with substrate ENLYLQS: 0.0433 | area with substrate ENLYMQS: 0.0379 | area with substrate ENLYNQS: 0.0611 | area with substrate ENLYPQS: 0.0456 | area with substrate ENLYQQS: 0.0472 | area with substrate ENLYTQS: 0.0417 | area with substrate ENLYVQS: 0.0494 | area with substrate ENLYWQS: 0.048 | area with substrate ENLYYQS: 0.0517

A170D
area with substrate ENLYCQS: 0.0575 | area with substrate ENLYNQS: 0.0397

K90D
area with substrate ENLYDQS: 0.0805 | area with substrate ENLYEQS: 0.0642 | area with substrate ENLYGQS: 0.0795 | area with substrate ENLYHQS: 0.105 | area with substrate ENLYIQS: 0.143 | area with substrate ENLYNQS: 0.0643 | area with substrate ENLYQQS: 0.0637 | area with substrate ENLYVQS: 0.134

S169V
area with substrate ENLYCQS: 0.0997 | area with substrate ENLYEQS: 0.0591 | area with substrate ENLYHQS: 0.0737 | area with substrate ENLYKQS: 0.0709 | area with substrate ENLYNQS: 0.0585 | area with substrate ENLYPQS: 0.0466 | area with substrate ENLYRQS: 0.0492 | area with substrate ENLYVQS: 0.0637

S169L
area with substrate ENLYCQS: 0.0533 | area with substrate ENLYDQS: 0.0722 | area with substrate ENLYGQS: 0.0609 | area with substrate ENLYLQS: 0.0329 | area with substrate ENLYNQS: 0.062 | area with substrate ENLYPQS: 0.0575 | area with substrate ENLYQQS: 0.0842 | area with substrate ENLYVQS: 0.0597 | area with substrate ENLYYQS: 0.0647

F92W
area with substrate ENLYDQS: 0.0515 | area with substrate ENLYEQS: 0.0706 | area with substrate ENLYHQS: 0.11 | area with substrate ENLYIQS: 0.112 | area with substrate ENLYKQS: 0.0452 | area with substrate ENLYRQS: 0.06 | area with substrate ENLYSQS: 0.0688 | area with substrate ENLYYQS: 0.0597

F92M
area with substrate ENLYDQS: 0.0621 | area with substrate ENLYEQS: 0.0661 | area with substrate ENLYHQS: 0.0635 | area with substrate ENLYNQS: 0.068 | area with substrate ENLYSQS: 0.0994 | area with substrate ENLYVQS: 0.134

Q59E
area with substrate ENLYDQS: 0.0634 | area with substrate ENLYEQS: 0.0866 | area with substrate ENLYGQS: 0.0661 | area with substrate ENLYHQS: 0.0681 | area with substrate ENLYKQS: 0.0577 | area with substrate ENLYLQS: 0.0678 | area with substrate ENLYNQS: 0.0644 | area with substrate ENLYPQS: 0.0851 | area with substrate ENLYQQS: 0.0402 | area with substrate ENLYRQS: 0.08 | area with substrate ENLYSQS: 0.0739 | area with substrate ENLYTQS: 0.0722 | area with substrate ENLYVQS: 0.101 | area with substrate ENLYWQS: 0.0668

F133S
area with substrate ENLYCQS: 0.0965 | area with substrate ENLYHQS: 0.0925 | area with substrate ENLYMQS: 0.0707 | area with substrate ENLYNQS: 0.047 | area with substrate ENLYRQS: 0.0214 | area with substrate ENLYTQS: 0.0745 | area with substrate ENLYWQS: 0.0848 | area with substrate ENLYYQS: 0.0619

V210I
area with substrate ENLYCQS: 0.07 | area with substrate ENLYGQS: 0.0382 | area with substrate ENLYHQS: 0.0646 | area with substrate ENLYNQS: 0.0553 | area with substrate ENLYPQS: 0.0755

S18D
area with substrate ENLYDQS: 0.0514 | area with substrate ENLYEQS: 0.0574 | area with substrate ENLYHQS: 0.0636 | area with substrate ENLYIQS: 0.1 | area with substrate ENLYKQS: 0.0819 | area with substrate ENLYPQS: 0.0719 | area with substrate ENLYRQS: 0.0779 | area with substrate ENLYSQS: 0.052 | area with substrate ENLYTQS: 0.0684

D27H
area with substrate ENLYDQS: 0.062 | area with substrate ENLYGQS: 0.0517 | area with substrate ENLYHQS: 0.0765 | area with substrate ENLYMQS: 0.0799 | area with substrate ENLYNQS: 0.0621 | area with substrate ENLYSQS: 0.0554 | area with substrate ENLYTQS: 0.0852 | area with substrate ENLYWQS: 0.082

G35H
area with substrate ENLYDQS: 0.0334 | area with substrate ENLYEQS: 0.0389 | area with substrate ENLYGQS: 0.0486 | area with substrate ENLYHQS: 0.0545 | area with substrate ENLYMQS: 0.0525 | area with substrate ENLYNQS: 0.0382 | area with substrate ENLYPQS: 0.0402 | area with substrate ENLYQQS: 0.0273 | area with substrate ENLYSQS: 0.0423 | area with substrate ENLYVQS: 0.0329 | area with substrate ENLYYQS: 0.047

G35F
area with substrate ENLYDQS: 0.0445 | area with substrate ENLYEQS: 0.0496 | area with substrate ENLYGQS: 0.0339 | area with substrate ENLYHQS: 0.0467 | area with substrate ENLYIQS: 0.0488 | area with substrate ENLYNQS: 0.0453 | area with substrate ENLYRQS: 0.0571

L205Q
area with substrate ENLYCQS: 0.0427 | area with substrate ENLYDQS: 0.0455 | area with substrate ENLYMQS: 0.0616 | area with substrate ENLYPQS: 0.0247 | area with substrate ENLYWQS: 0.0595

V78Q
area with substrate ENLYDQS: 0.0463 | area with substrate ENLYEQS: 0.0568 | area with substrate ENLYGQS: 0.0505 | area with substrate ENLYMQS: 0.074 | area with substrate ENLYRQS: 0.0679

T181D
area with substrate ENLYCQS: 0.0768 | area with substrate ENLYEQS: 0.0557 | area with substrate ENLYHQS: 0.0616 | area with substrate ENLYIQS: 0.0584 | area with substrate ENLYKQS: 0.0461 | area with substrate ENLYMQS: 0.0621 | area with substrate ENLYPQS: 0.0542 | area with substrate ENLYQQS: 0.0687 | area with substrate ENLYRQS: 0.0589 | area with substrate ENLYSQS: 0.0637

P9D
area with substrate ENLYDQS: 0.0682 | area with substrate ENLYHQS: 0.0613 | area with substrate ENLYKQS: 0.0082 | area with substrate ENLYMQS: 0.0953 | area with substrate ENLYPQS: 0.0674 | area with substrate ENLYQQS: 0.112 | area with substrate ENLYVQS: 0.0979 | area with substrate ENLYWQS: 0.0629

P9E
area with substrate ENLYDQS: 0.0602 | area with substrate ENLYEQS: 0.0629 | area with substrate ENLYGQS: 0.0653 | area with substrate ENLYHQS: 0.0488 | area with substrate ENLYKQS: 0.0279 | area with substrate ENLYLQS: 0.0734 | area with substrate ENLYMQS: 0.0679 | area with substrate ENLYNQS: 0.057 | area with substrate ENLYVQS: 0.0721
